In PubChem BioAssay AID1671193 (National Center for Advancing Translational Sciences (NCATS), 2021):
Out of some 150,000 compounds screened, about 180 (0.12%) were called active. Inconclusive means that the source gave no clear call. Such entries were picked first, then a sample of the others. Calls follow the shape of the dose curve; as a rule, active = well fitted cell-killing curve with a large enough effect; inconclusive = small, poorly fitted or top-dose-only effect, or effect the other way; inactive = flat fitted curve, though single readings scatter. A potency beside an inconclusive call is a rough fit, not a confirmed value.

Assay: GF-AFC viability counterscreen for inhibitors of alpha-synuclein gene (SNCA) expression; also: nearly all actives have a fitted effect of over 30% in size;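 as to activity change, negative = cytotoxicity: 0% = DMSO-treated cells and -100% = medium-only wells without cells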
Conditions: HEK-293-SNCA-luc viability, GF-AFC fluorescence, 24 h; activity change, negative = cytotoxicity: at 57.1 µM (top of the series) unless noted
Procedure, shortened: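 HEK-293-SNCA-luc cells (1500/well) plated 24 h, then exposed 24 h to a dilution series; GF-AFC added 30 min at 37C, fluorescence 405/540 nm; normalised to medium-only and DMSO wells, Hill fit.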
Potency is read from the fitted curve at half-maximal effect; tags tell the direction and shape of the fitted curve.

Row | SMILES | activity change, negative = cytotoxicity | Potency
1 | O=[S+]1([O-])NC2(CCN(Cc3ccncc3)C2)COc2ccncc21 (stereo unspecified) | inactive: -1.28% | 
2 | C/C=C(\C)C(=O)O[C@H]1CC2C(=C1C)[C@H]1OC(=O)[C@](C)(O)[C@]1(O)[C@H](OC(=O)CCC)C[C@@]2(C)OC(C)=O (stereo partly specified) |  | inconclusive: 11.6 µM [cytotoxic, partial curve, poor fit]
3 | O=C1NC2(CCN(Cc3ccccn3)C2)Oc2ccccc21 (stereo unspecified) |  | inconclusive: 10 µM [cytotoxic, single point]
4 | CC[C@H]1CN2CC[C@H]1C[C@@H]2CN(Cc1ccc(SC)cc1)Cc1ccc(SC)cc1 |  | inconclusive: 31.6 µM [cytotoxic, single point]
5 | CN1CCNc2cc(Nc3ccc(F)cc3)ncc2C1 | inactive: 0.686% [at 87.6 µM] | 
6 | CCC(c1cccs1)N1C(=O)[C@H]2CNC[C@H]2C1=O (stereo partly specified) |  | inconclusive: 39.8 µM [cytotoxic, single point]
7 | COc1cc2c(cc1OCc1ccccc1)N(C(=O)COc1ccccc1C(N)=O)CC21CCN(C)CC1 |  | inconclusive: 28.2 µM [cytotoxic, single point]
8 | COc1cc2c(cc1Oc1ccccc1)NC(=O)C21CCN(c2nc(C)cnc2C)CC1 |  | inconclusive: 20 µM [cytotoxic, partial curve, poor fit]
9 | Cc1nnc2n1-c1sc(CCc3ccc(CC(C)C)cc3)cc1C(c1ccccc1Cl)=NC2C (stereo unspecified) |  | inconclusive: 37.7 µM [cytotoxic, single point]
10 | CN1CCN2C(=O)N(Cc3cccnc3)C[C@H]2C1 | inactive: 10.3% [at 87.6 µM] | 
11 | COc1nc2c(cc1CNC(=O)C1C(C)(C)C1(C)C)C(=O)N(C1CCCC1)C2 |  | inconclusive: 28.2 µM [cytotoxic, partial curve]
12 | Cc1ncc2c(n1)C[C@@H]1CC[C@H]2N1C(=O)CC1CCCC1 | inactive: 2.15% | 
13 | O=C(NC[C@H]1C[C@@H]2CCN1C[C@@H]2CN1CCC(Cc2ccccc2)CC1)Nc1ccsc1 |  | inconclusive: 39.8 µM [cytotoxic, single point]
14 | O=C1NCCOCCN[C@@H]2CCCC[C@H]12 |  | inconclusive: 1.58 µM [cytotoxic, partial curve, poor fit]
15 | O=C(CCc1nc2ccccc2[nH]1)N1[C@H]2CC[C@@H]1c1cnc(-c3ccc(F)cc3)nc1C2 | inactive: -2.97% | 
16 | Cc1nc(-c2ccccc2Br)cc([C@H]2CN3CC[C@H]2C[C@@H]3CNC(=O)Nc2cccc(C#N)c2)n1 |  | inconclusive: 14.1 µM [cytotoxic, partial curve, poor fit]
17 | O=C(c1ccco1)N1[C@H]2CC[C@@H]1c1cnc(-c3ccc(F)cc3)nc1C2 | inactive: -6.76% | 
18 | CC(C)C(=O)O[C@H]1[C@@H]2[C@H](C)C(=O)O[C@@H]2C[C@@H](C)[C@@H]2C=CC(=O)[C@]21C |  | inconclusive: 26.1 µM [cytotoxic, single point]
19 | O=C(Cc1ccc(F)cc1)N1CCN(C2CCN(CCc3ccccc3)C2=O)CC1 (stereo unspecified) |  | inconclusive: 8.91 µM [cytotoxic, single point]

Row | SMILES | activity change, negative = cytotoxicity | Potency
20 | COc1cc(NC(=O)OC[C@H]2C[C@@H]3CCN2C[C@@H]3c2cc(-c3ccc(N(C)C)cc3)nc(C)n2)cc(OC)c1 |  | inconclusive: 31.6 µM [cytotoxic, partial curve, poor fit]
21 | COc1cc2c(cc1OCc1ccccc1)N(C(=O)C(C)C)CC21CCN(C)CC1 | inactive: -23.6% [at 87.6 µM] | 
22 | Cc1ccccc1C(=O)N1CCC2(CC1)c1nccn1-c1ccccc1CN2CC(C)C |  | inconclusive: 17.8 µM [cytotoxic, single point]
23 | Cc1ccc(S(=O)(=O)NC[C@H]2C[C@@H]3CCN2C[C@@H]3CN2CCc3ccccc32)cc1 |  | inconclusive: 35.5 µM [cytotoxic, single point]
24 | CCN(CC)C[C@H]1CN2CC[C@H]1C[C@@H]2CNS(=O)(=O)c1ccc(Cl)cc1 |  | inconclusive: 28.2 µM [cytotoxic, partial curve, poor fit]
25 | Cn1nc(-c2ccccc2)cc1[C@H]1CN2CC[C@H]1C[C@@H]2CNC(=O)Nc1ccccc1 | inactive: -3.7% [at 87.6 µM] | 
26 | CCOC(=O)[C@H]1CN(C(=O)CCc2ccccc2)[C@]2(C)C(=O)N(CCOC)c3ccccc3[C@H]12 | inactive: -2.69% [at 23.9 µM] | 
27 | COCC1CN(C(C)=O)CC12CCNCC2 (stereo unspecified) |  | inconclusive: 31.6 µM [cytotoxic, single point]
28 | NCC(O)c1cc(O)c(O)cc1F (stereo unspecified) | inactive: 6.98% | 
29 | CC(C)NC(=O)OC[C@H]1C[C@@H]2CCN1C[C@@H]2c1cc(-c2ccc3ccccc3c2)nn1C |  | inconclusive: 56.2 µM [cytotoxic, single point]
30 | C[C@H]1O[C@@H](O[C@H]2CC[C@]3(CO)C4CC[C@]5(C)[C@@H](C6=CC(=O)OC6)CC[C@]5(O)[C@@H]4CC[C@H]3C2)[C@H](O)[C@H](O)[C@@H]1O[C@@H]1O[C@H](CO)[C@@H](O)[C@H](O)[C@H]1O (stereo partly specified) |  | inconclusive: 5.61 µM [cytotoxic, partial curve, poor fit]
31 | COc1ccc(OC)c(CC(C)N)c1 (stereo unspecified) |  | inconclusive: 50.1 µM [rising, partial curve, poor fit]
32 | O=C(NCc1ccco1)[C@H]1CN2CC[C@H]1C[C@@H]2Cn1cc(CCO)nn1 | inactive: -0.482% [at 87.6 µM] | 
33 | CCOC(=O)[C@H]1CN(C(=O)c2cccs2)[C@]2(C)C(=O)N(CC3CC3)c3ccccc3[C@H]12 | inactive: -6.08% [at 23.9 µM] | 
34 | C=CCN1CCc2cccc3c2[C@H]1Cc1ccc(O)c(O)c1-3 |  | inconclusive: 0.708 µM [cytotoxic, full curve, poor fit]
35 | COC1C(O)C(OC2CCC3(C=O)C(CCC4C3CCC3(C)C(C5=CC(=O)OC5)CCC43O)C2)OC(C)C1OC1OC(CO)C(O)C(O)C1O (stereo unspecified) |  | inconclusive: 1.58 µM [cytotoxic, full curve, poor fit]
36 | C/C1=C/[C@@H](C)C/C=C/[C@H]2[C@@H]3O[C@]3(C)[C@@H](C)[C@H]3[C@H](Cc4c[nH]c5ccccc45)NC(=O)[C@]32C(=O)/C=C\C(=O)[C@@H]1O |  | inconclusive: 13 µM [cytotoxic, partial curve, poor fit]
37 | CCOCCCNC(=O)N1[C@H]2CC[C@@H]1c1cnc(-c3ccc(F)cc3)nc1C2 | inactive: -5.47% | 
38 | CN(Cc1cccc(-c2ccncc2)c1)C(=O)Oc1ccc(-c2ccc(C(N)=O)cc2)cc1 |  | inconclusive: 21.2 µM [cytotoxic, partial curve, poor fit]

Row | SMILES | activity change, negative = cytotoxicity | Potency
39 | CCC(CC)c1cc([C@H]2CN3CC[C@H]2C[C@@H]3COC(=O)Nc2ccccc2)nc(-c2ccncc2)n1 | inactive: 3.51% | 
40 | O=S(=O)(NC[C@H]1C[C@@H]2CCN1C[C@@H]2CN1CCC(Cc2ccccc2)CC1)c1ccc(Cl)cc1 |  | inconclusive: 31.6 µM [cytotoxic, single point]
41 | C[C@]12CC[C@H](O)CC1=CC[C@@H]1C2CC[C@]2(C)[C@@H](C3=CC(=O)OC3)CC[C@]12O (stereo partly specified) | inactive: -39.8% | 
42 | COc1cc2c(cc1Oc1ccccc1)NC(=O)C21CCN(C(=O)c2cnccn2)CC1 | inactive: -5.68% [at 87.6 µM] | 
43 | CC[C@@H]1C[C@H]2CC[C@H](O2)[C@H](C)C(=O)O[C@@H](C)C[C@@H]2CC[C@@H](O2)[C@@H](C)C(=O)O[C@H](CC)C[C@H]2CC[C@H](O2)[C@H](C)C(=O)O[C@@H](C)C[C@@H]2CC[C@@H](O2)[C@@H](C)C(=O)O1 |  | inconclusive: 0.0998 µM [cytotoxic, full curve]
44 | CCC(CC)c1cc([C@H]2CN3CC[C@H]2C[C@@H]3CNS(=O)(=O)c2cccs2)nc(-c2ccncc2)n1 |  | inconclusive: 39.8 µM [cytotoxic, single point]
45 | C[C@H]1O[C@@H](O[C@H]2CC[C@]3(C=O)C4CC[C@]5(C)[C@@H](C6=CC(=O)OC6)CC[C@]5(O)[C@@H]4CC[C@]3(O)C2)C[C@@H](O)[C@@H]1O (stereo partly specified) |  | inconclusive: 0.327 µM [cytotoxic, full curve]
46 | CC[C@H]1CN2CC[C@H]1C[C@@H]2CN(Cc1cccs1)Cc1cccs1 |  | inconclusive: 28.2 µM [cytotoxic, single point]
47 | C=C(CO)[C@@]12O[C@@H]1[C@@]1(C)C(=CC2=O)CC[C@@H](O)[C@@H]1C |  | inconclusive: 26.7 µM [cytotoxic, partial curve, poor fit]
48 | Nc1c(C(=O)Nc2cccc(Br)c2)sc2nc3c(cc12)N1CCC3CC1 |  | inconclusive: 5.62 µM [rising, full curve]
49 | CC(C)c1ccc(NC(=O)OC[C@H]2C[C@@H]3CCN2C[C@@H]3c2cc(C3CCCCC3)nn2C)cc1 |  | inconclusive: 39.8 µM [cytotoxic, single point]
50 | CC1=CC2OC3CC(O)[C@](C)([C@@]2(C)C(O)C1=O)[C@]31CO1 (stereo partly specified) |  | inconclusive: 16.8 µM [cytotoxic, partial curve, poor fit]
51 | O=C(Cc1cccc(F)c1)N1[C@H]2CC[C@@H]1c1cnc(-c3ccc(F)cc3)nc1C2 | inactive: -6.88% | 
52 | O=C(CN1C(=O)CN=C(c2ccccc2)c2ccccc21)Nc1cccc(C(F)(F)F)c1 |  | inconclusive: 39.8 µM [cytotoxic, single point]
53 | CC(C)(O)C=CC(=O)[C@](C)(O)[C@H]1[C@H](O)C[C@]2(C)[C@@H]3CC=C4[C@@H](C=C(O)C(=O)C4(C)C)[C@]3(C)C(=O)C[C@@]12C |  | inconclusive: 0.171 µM [cytotoxic, full curve]
54 | Cc1nc(-c2ccc(N(C)C)cc2)cc([C@H]2CN3CC[C@H]2C[C@@H]3CNCc2cccc(C#N)c2)n1 |  | inconclusive: 20 µM [cytotoxic, partial curve, poor fit]
55 | O=C(NCc1ccccc1)[C@H]1CN2CCC1C[C@@H]2Cn1cc(-c2ccccc2)nn1 (stereo partly specified) | inactive: 8.14% [at 87.6 µM] | 
56 | COc1ccccc1-c1cc([C@H]2CN3CC[C@H]2C[C@@H]3CNS(=O)(=O)c2ccc(NC(C)=O)cc2)n(C)n1 | inactive: 2.24% | 
